55 compounds from PubChem BioAssay AID1688 (National Center for Advancing Translational Sciences (NCATS), 2009) can be followed below.

Out of some 220,000 compounds screened, about 2,400 (1.1%) were called active. Roughly 7% stayed inconclusive and do not appear here. The call rests on the fitted dose curve; in most records, active means well fitted inhibition curve with a large enough effect; inconclusive means small, poorly fitted or top-dose-only effect, or effect the other way; inactive means no such curve, though single readings can be large or run the other way. Only a part is listed here, and it is no random draw. Where a structure was tested more than once in an assay, its records may differ in their call.
On the % scale 0 is the no-effect control and ±100 the full control effect.

The assay is described as follows: qHTS Multiplex Assay to Identify Dual Action Probes in a Cell Model of Huntington: Aggregate Formation (GFP). Further: nearly all actives have a fitted effect of over 60% in size. The settings on record: PC12 HttQ103-GFP aggregates, Acumen cytometry, 40 h; series mostly up to 46.1 µM; activity change, negative = inhibition: at the top concentration. The text has this:
NIH Chemical Genomics Center [NCGC]
NIH Molecular Libraries Probe Production centers Network [MLPCN]
Assay Submitter (PI): Wei Zheng
Huntington's disease is a neurodegenerative disorder caused by a trinucleotide repeat expansion in Exon 1 of the Huntingtin gene. The CAG trinucleotide encodes glutamine and polyglutamine expansions cause cell death in selective areas of the brain. Huntington polyglutamine repeats have the tendency to form aggregates which are observable in later stages of the disease. The exact nature of the aggregates, whether toxic, protective, or insignificant, is unclear.
A stable PC12 cell line containing a gene fusion of Exon 1 of the Huntingtin gene linked to GFP under the control of the inducible ecdysone promoter were used as the cell-based model of Huntington Disease for high throughput screening. Exon 1 of the Huntingtin gene contained an expansion of 103 polyglutamines (Q103) which, when expressed, caused cell death and distinct, bright GFP aggregates. The amount of cell death and the size and intensity of GFP aggregates increased over time and induction level. The cell death were quantified with a measurement of ATP content in the cells. A maximal 40-50% of cell death was observed when the Huntington gene was induced in this cell line.
We optimized this assay in a homogeneous 1536 well format. A quantitative high throughput screen (qHTS) was conducted on the PC12 cells which were induced to express the toxic fusion construct. Small molecules which reduced aggregate formation were identified bu using a laser scanning cytometer calibrated to detect the aggregates in cell lysates.
PC12 cells stably containing a construct with an ecdysone inducible promoter expressing GFP fused to the exon 1 of HTTQ103 (Huntington protein which containing a 103 ployglutamine expansion) were used.
NCGC Assay Protocol Summary:
Sequence, Parameter, Description
1, Reagent, 5 uL 1500 cells/well 1536 TC treated White clear bottom plate
2, Compound, 23 nL Tebufenozide inducer (100 nM final) to all columns
3, Compound, 23 nL 40 uM to 0.5 nM Libraries
5, Reagent, 5 ul ATPLite cell death assay reagent
6, Detector, Aggregate quantitation by Acumen Explorer
Media consisted of phenol red free DMEM + 5% equine serum (Hyclone # SH30072.03 ), 5% supplemented Bovine Calf Serum (Hyclone # SH30074.03 ), 1x pen/strep, no G418
Acumen Explorer was used to quantitate GFP aggregates using the following criteria: […] laser excitation, 500-530 nm emission, the PMT was set at a voltage of 450 volts, and objects ranging in size of […] in size having a signal of 6 STDEV above background were collected.
Control columns: 1 = DMSO, 2= 2 uM teb dilns (1:1), 4 = 100 nM Teb inducer. Sample columns received 100 nM Teb.
(In general: qHTS replaces the single test concentration by a dilution series.)
For `O=C1/C(=C\c2ccco2)SC(=S)N1C1CCS(=O)(=O)C1` (stereo not given), the activity change, negative = inhibition was inactive: 6.27% [at 9.22 µM]. The same measure, in the same setting: under `CN(C)c1ccc2nc3ccc(=[N+](C)C)cc-3sc2c1` stands inactive: -43.1%. Regarding `COc1ccc(/C=C/c2cc(-c3ccc(C)cc3)o[n+]2C)cc1`, the Potency was active: 4.47 µM. Regarding `CN1CCc2cccc3c2[C@H]1Cc1ccc(O)c(O)c1-3`, the “activity change, negative = inhibition” value was inactive: 22.5%. Same read-out and setting: under `COC(=O)/C=C1\N/C(=N\c2nc(C)cc(C)n2)N(c2ccc(Cl)cc2)C1=O` stands inactive: -1.79% [at 9.22 µM]; under `COC(C[C@@H]1O[C@H]1[C@@H](O)[C@@H](C)OCc1ccccc1)OC`, inactive: 0.599% [at 9.22 µM]. Still for that read-out and setting: the figure for `Cc1sc(N2C(=O)C3C(C2=O)[C@H]2C=C[C@@H]3C2)c(C#N)c1C` (stereo not given in full) is inactive: -9.84% [at 9.22 µM]. On the same count and under the same terms, the figure for `O=C(/C=C/c1ccccc1)Oc1cccc2cccnc12` is inactive: -27% [at 9.22 µM]. For `COc1cc(/C=C2\S/C(=N/S(=O)(=O)c3ccccc3)NC2=O)c([N+](=O)[O-])cc1OC`, the “activity change, negative = inhibition” value was inactive: 27.1%. Consider `O=C(CCCc1cccs1)Nc1nc2c(s1)CCCC2`, for which the Potency is active: 0.0282 µM. For the compound `COc1ccccc1N1CCN(CC(O)COc2cccc3ccccc23)CC1` (stereo not given), the “activity change, negative = inhibition” value is inactive: -11.8%. The same measure, in the same setting: the figure for `N#C/C(=N\O)c1nc(-c2ccccc2)cs1` is inactive: -17.2%.

With `O=C(c1nnsc1S(=O)(=O)c1ccc(Cl)cc1)N1CCOCC1`, the Potency is active: 12.6 µM. For `COC(C[C@@H]1O[C@H]1[C@H](O)COCc1ccccc1)OC`, the activity change, negative = inhibition was inactive: 41.9% [at 9.22 µM]. Still for that read-out and setting: under `COC(C[C@H]1O[C@H]1[C@@H](O)COCc1ccccc1)OC` stands inactive: -2.4% [at 9.22 µM]; under `O=C(O)C/C=C(\NC(=O)OCc1ccccc1)C(=O)OCc1ccccc1`, inactive: -2.1%; under `COc1cc(NCCCC(C)N)c2ncccc2c1` (stereo not given), inactive: 4.99%. With `CCC(=O)N1Cc2ccccc2-c2ccccc2C1=O`, the Potency was active: 5.62 µM. `COc1ccc(Cc2c(O)nc(SCC(=O)NC34CC5CC(CC(C5)C3)C4)[nH]c2=O)cc1`: the activity change, negative = inhibition was inactive: -1.34% [at 9.22 µM]. As to `O=C(N/N=C/c1c(O)n(-c2ccccc2Cl)c(=O)c2ccccc12)C1COc2ccccc2O1` (stereo not given), the Potency is active: 12.6 µM. With `CN1/C(=C/C=C(C#N)C#N)C(C)(C)c2ccccc21`, the activity change, negative = inhibition is inactive: 16.6% [at 9.22 µM]. The same measure, in the same setting: the figure for `O=C(NN1C(=O)/C(=C/c2cccnc2)SC1=S)C(c1ccccc1)c1ccccc1` is inactive: 4.2%. For the compound `O=C1C(Cl)=C(Nc2ccc3cn[nH]c3c2)C(=O)c2ccccc21`, the Potency is active: 3.98 µM. On the same count and under the same terms, the figure for `COc1ccc(CCn2c(C)cc(C(=O)CSc3nc(N)cc(=O)[nH]3)c2C)cc1` is active: 7.08 µM.

As for `O=C1S/C(=C\c2ccc(N3CCOCC3)o2)C(=O)N1Cc1c(F)cccc1Cl`, the “activity change, negative = inhibition” value is inactive: 21%. Regarding `Fc1ccc(CN(Cc2ccccc2)C(c2cccs2)c2nnnn2C2CCCCC2)cc1` (stereo not given), the Potency was active: 25.1 µM. On the same count and under the same terms, the figure for `O=C(NCCc1ccccc1)c1oc2ccccc2c1COc1ccccc1` is active: 14.1 µM; for `O=C(NCCCNc1ccc(C(F)(F)F)cc1[N+](=O)[O-])c1ccc(Cl)cc1` it is active: 11.2 µM.

In the case of `COc1cc(/C=C/C(=O)CC(=O)/C=C/c2ccc(O)c(OC)c2)ccc1O`, the “activity change, negative = inhibition” value was inactive: 1.34%. The same measure, in the same setting: under `COc1ccccc1/C=C/C=N/NC(=O)c1ccco1` stands inactive: 2.34% [at 9.22 µM]. On the same count and under the same terms, under `COC(C[C@H]1O[C@H]1[C@H](O)[C@H](C)OCc1ccccc1)OC` stands inactive: 4.79% [at 9.22 µM]; under `COc1ccc(/C=C/C(=O)c2c(O)ccc3c(C)cc(=O)oc23)cc1`, inactive: -16.1%; under `O=C(N/N=C/C(Br)=C\c1ccccc1)c1n[nH]c2c1CCC2`, inactive: 57.2%. Same read-out and setting: the figure for `Cc1ccc(C(=O)N/C(=C/C=C\c2ccccc2)C(=O)NCc2ccco2)cc1` is inactive: 0.751%.

As for `O=C(NCc1ccc2c(c1)OCO2)c1ccc(COc2cccc(Cl)c2)o1`, the Potency is active: 28.2 µM. Regarding `CCO[C@H]1OC(C(=O)NC2CC2)=C[C@@H](c2c[nH]c3ccccc23)[C@@H]1CCCO`, the activity change, negative = inhibition is inactive: -25.1% [at 9.22 µM].

Turning to `C/C=C(/C)C(=O)OC1c2c(ccc3ccc(=O)oc23)OC(C)(C)C1OC(=O)/C(C)=C\C` (stereo not given), the activity change, negative = inhibition is inactive: 22.6% [at 9.22 µM]. Still for that read-out and setting: the figure for `COC(C[C@H]1O[C@H]1[C@H](O)COCc1ccccc1)OC` is inactive: -44.3% [at 9.22 µM]; for `CC(NO)C(C)(C)NO` (stereo not given) it is inactive: 9.92%; for `O=C(O)CCn1cc(/C=C/C(=O)c2ccc(Cl)cc2)c(-c2cccc(Br)c2)n1` it is inactive: -3.24% [at 9.22 µM]. `CCc1ccc(/C=c2\s/c(=C\C(=O)C(C)(C)C)[nH]c2=O)cc1`: the Potency is active: 14.1 µM. With `COC(C[C@H]1O[C@@H]1[C@@H](O)COCc1ccccc1)OC`, the activity change, negative = inhibition is inactive: 15% [at 9.22 µM]. Still for that read-out and setting: the figure for `CC(=O)Nc1nc(C)c(-c2csc(Nc3ccccn3)n2)s1` is inactive: -29.7% [at 9.22 µM]; for `N=C(N)SCc1nc2ccccc2c(=O)n1-c1ccccc1` it is inactive: 26%.

With `C[C@@H]1CCC[C@H](C)N1NC(=O)c1ccc(Cl)c(S(N)(=O)=O)c1`, the Potency entry was “inactive”.

For `O=c1c2c(nc3c(-c4cccc(Br)c4)c[nH]n13)CCCC2`, the Potency is active: 3.55 µM. Regarding `CC#C[C@]1(O)CC[C@H]2[C@@H]3CCC4=CC(=O)CCC4=C3[C@@H](c3ccc(N(C)C)cc3)C[C@@]21C`, the “activity change, negative = inhibition” value was inactive: -66.6%. Consider `Cc1ccc(F)c(C2C3C=CCC(c4cccc(-c5ccc(N(C)C)cc5)c4)C3C(=O)N2Cc2ccccc2)c1` (stereo not given), for which the Potency was active: 3.16 µM.

On to `COC(=O)/C=C1\N/C(=N\c2nc(C)cc(C)n2)N(c2ccccc2)C1=O`, for which the activity change, negative = inhibition was inactive: 23.6% [at 9.22 µM]. Same read-out and setting: the figure for `CC(C)(C)[C@]1(O)CCN2CC3c4ccccc4CCc4cccc(c43)[C@@H]2C1` (stereo not given in full) is inactive: -17.7%; for `COc1ccc(-c2nn(-c3ccccc3)cc2/C=C(\C#N)C(N)=O)cc1[N+](=O)[O-]` it is inactive: 17.3%; for `CCOC(=O)N1CCN(C(=O)/C(=C/c2cccs2)NC(=O)c2cccs2)CC1` it is inactive: -0.565% [at 9.22 µM]. Turning to `Cc1ccc(-c2nn(-c3ccccc3)cc2/C=N/NC(=O)c2ccc(Br)o2)cc1`, the Potency was active: 7.08 µM.

`COC(C[C@@H]1O[C@@H]1[C@@H](O)[C@@H](C)OCc1ccccc1)OC`: the activity change, negative = inhibition was inactive: -7.78% [at 9.22 µM].

Consider `CN1CCN2c3ccccc3Cc3ccccc3C2C1` (stereo not given), for which the “activity change, negative = inhibition” value is inactive: -15.3%.
